Laboratory results from the supplement of paper PMC3334620.
In all, about 33,000 sequences were measured (“E-score (-0.5 to 0.5)”: median about -0.012, highest 2% from about 0.29 on). The list shows a part of the results.

These sequences were tested against T1, Ybr033w (UniProt P38073) (assay: PBM E-score (8-mer binding enrichment) (E-score (-0.5 to 0.5)); higher = stronger / more preferred TF binding; most listed sequences are background and not binding sites). Details: protein concentration: 200 nM; construct: GST-full length.
T1 sequence: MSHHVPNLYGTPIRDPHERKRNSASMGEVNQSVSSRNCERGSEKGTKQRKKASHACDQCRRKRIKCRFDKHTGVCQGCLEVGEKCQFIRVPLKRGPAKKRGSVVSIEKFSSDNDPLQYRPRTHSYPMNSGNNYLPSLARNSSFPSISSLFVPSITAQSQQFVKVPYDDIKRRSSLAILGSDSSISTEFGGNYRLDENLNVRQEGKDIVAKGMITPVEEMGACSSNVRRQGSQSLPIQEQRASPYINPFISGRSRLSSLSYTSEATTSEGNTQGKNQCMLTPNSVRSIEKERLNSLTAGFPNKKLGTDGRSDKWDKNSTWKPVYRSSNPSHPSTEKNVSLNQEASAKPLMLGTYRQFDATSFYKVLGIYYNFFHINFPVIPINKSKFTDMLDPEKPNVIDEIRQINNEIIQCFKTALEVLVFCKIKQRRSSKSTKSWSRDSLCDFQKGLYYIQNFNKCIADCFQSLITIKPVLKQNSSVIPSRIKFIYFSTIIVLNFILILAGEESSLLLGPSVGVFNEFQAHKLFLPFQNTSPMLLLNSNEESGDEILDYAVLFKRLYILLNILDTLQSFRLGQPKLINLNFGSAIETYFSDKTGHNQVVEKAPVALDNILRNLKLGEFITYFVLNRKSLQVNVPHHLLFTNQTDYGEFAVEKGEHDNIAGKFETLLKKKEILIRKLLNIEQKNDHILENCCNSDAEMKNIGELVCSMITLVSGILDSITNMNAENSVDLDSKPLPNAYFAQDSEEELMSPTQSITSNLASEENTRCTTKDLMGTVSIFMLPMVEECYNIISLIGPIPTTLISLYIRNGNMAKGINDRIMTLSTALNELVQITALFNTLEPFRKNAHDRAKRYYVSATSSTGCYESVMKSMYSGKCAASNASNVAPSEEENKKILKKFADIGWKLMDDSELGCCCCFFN
Experimental: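 Universal 'all 10-mer' protein binding microarrays (Agilent AMADID 015681) probed with GST-tagged S. cerevisiae TFs (full-length or DBD) made by in vitro transcription/translation (PURExpress), about 100-200 nM. Bound TF was detected with fluorescent anti-GST. Each ungapped 8-mer (which stands for itself and its reverse complement) is scored by the PBM enrichment score (E-score), a modified Wilcoxon-Mann-Whitney statistic from -0.5 to +0.5, computed with the Universal PBM Analysis Suite. Scale: above 0.35 generally sequence-specific binding.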

First: GGCTCCCA
Second: CAACCACC
The “PBM E-score” value of the first is lower: -0.317 for the first, 0.075 for the second.

First: AGTACGTC
Second: ATAGATCG
The “PBM E-score” value of the first is higher: 0.0497 for the first, -0.051 for the second.

First: CACGCAGC
Second: AATACTTG
The “PBM E-score” value of the first is lower: -0.271 for the first, 0.131 for the second.

Going from CTCTAAAA to CAAGTTAG, the “PBM E-score” value rises from -0.00952 to 0.0992.

First: GCAGCTAC
Second: CCCATGCG
The “PBM E-score” value of the first is higher: 0.095 for the first, -0.144 for the second.

Compared with TATATCAA, CGCCTAAA is lower in “PBM E-score” value: 0.21 for the first, 0.0706 for the second.

First: AGGTCAGC
Second: AAGATTTA
The “PBM E-score” value of the first is lower: 0.0524 for the first, 0.194 for the second.

Going from ATTGATCA to AGTGACCC, the “PBM E-score” value falls from 0.051 to -0.151.

First: CGCGATTA
Second: CCCAAACA
The “PBM E-score” value of the first is lower: -0.0677 for the first, 0.147 for the second.

Going from AATATCGC to CCGTTGTA, the “PBM E-score” value falls from 0.159 to 0.127.

Compared with GCGTGTAC, CCACGCGC is lower in “PBM E-score” value: -0.161 for the first, -0.202 for the second.

First: GAGTTTCA
Second: GATTTCGC
The “PBM E-score” value of the first is lower: 0.0406 for the first, 0.223 for the second.

First: GGTAGAAA
Second: GCATCTCC
The “PBM E-score” value of the first is higher: -0.0446 for the first, -0.132 for the second.

Going from CGCCAACC to AGCGAAAC, the “PBM E-score” value rises from -0.0944 to 0.119.

First: ACACTCTC
Second: CTTTTTCC
The “PBM E-score” value of the first is lower: 0.0481 for the first, 0.361 for the second.

Compared with CCGCCACA, AGATATAT is higher in “PBM E-score” value: -0.158 for the first, 0.241 for the second.

First: AACAACCT
Second: AGGGTATC
The “PBM E-score” value of the first is higher: 0.0933 for the first, -0.0301 for the second.

Compared with AACACGTC, AATATACT is higher in “PBM E-score” value: -0.082 for the first, 0.279 for the second.

Going from AGTAGTAG to CCTTACAA, the “PBM E-score” value falls from 0.0568 to -0.0273.

First: ACTTGCCC
Second: GCTCAGCC
The “PBM E-score” value of the first is higher: -0.0215 for the first, -0.261 for the second.

Compared with GGGACCAA, AAGGATTC is higher in “PBM E-score” value: -0.186 for the first, -0.0364 for the second.

First: CAAACTAA
Second: TATGGTGA
The “PBM E-score” value of the first is higher: 0.21 for the first, 0.0433 for the second.

First: CGATCCCG
Second: CTCCGCCA
The “PBM E-score” value of the first is lower: -0.14 for the first, -0.101 for the second.

Compared with GAGGGGCC, CGAAACCC is higher in “PBM E-score” value: -0.337 for the first, -0.138 for the second.

Going from ACACGCTG to ATAAGCTC, the “PBM E-score” value rises from -0.0448 to 0.0638.

Going from ACTTCGCT to CATAGTTA, the “PBM E-score” value rises from -0.0354 to 0.0586.

First: CTGTCGGC
Second: AGCGTGGC
The “PBM E-score” value of the first is lower: -0.209 for the first, -0.138 for the second.

Going from AATCTATG to GATTTGAC, the “PBM E-score” value falls from 0.144 to 0.0524.

Going from CCAGCTGC to GAGGACAA, the “PBM E-score” value rises from -0.301 to -0.0837.

Compared with CCCTGACA, CCCCGCGA is higher in “PBM E-score” value: -0.153 for the first, -0.0387 for the second.

Compared with ATAGCCCA, CAATTTGA is higher in “PBM E-score” value: 0.139 for the first, 0.22 for the second.

Compared with TACAACGA, CGGAGGTC is lower in “PBM E-score” value: 0.194 for the first, -0.0941 for the second.

Going from ACAAGGAA to CTACTATA, the “PBM E-score” value rises from 0.105 to 0.229.

First: GCGCGCAA
Second: AAGTTGGT
The “PBM E-score” value of the first is lower: -0.0747 for the first, 0.137 for the second.

Compared with ACAATCCC, CAAGTGTA is higher in “PBM E-score” value: 0.0235 for the first, 0.136 for the second.

Compared with AGTCGTGA, CGGGCGAC is lower in “PBM E-score” value: -0.0717 for the first, -0.356 for the second.

First: CTATGTGC
Second: ACTAGAGA
The “PBM E-score” value of the first is lower: 0.00263 for the first, 0.066 for the second.

Going from AGCATGCG to CCGGTCTC, the “PBM E-score” value falls from 0.00619 to -0.268.

Compared with AGTACTCA, CCGGGATA is higher in “PBM E-score” value: 0.0723 for the first, 0.0871 for the second.

Compared with CGCCGTCC, GGGGGTTA is lower in “PBM E-score” value: -0.126 for the first, -0.325 for the second.

Compared with GTACCGGA, GACCATAC is lower in “PBM E-score” value: 0.0229 for the first, -0.0678 for the second.

Compared with GGCGACCC, ACGTTGGC is higher in “PBM E-score” value: -0.301 for the first, -0.0124 for the second.

Compared with CGTATTGC, AGCAGAAC is lower in “PBM E-score” value: 0.00525 for the first, -0.0734 for the second.

Compared with CGGGAATA, GGGGTTAC is lower in “PBM E-score” value: 0.246 for the first, -0.294 for the second.

First: CTTGGACC
Second: ACCTTCCC
The “PBM E-score” value of the first is lower: -0.277 for the first, -0.261 for the second.

Compared with CTAGCACC, AAGTTCAG is higher in “PBM E-score” value: 0.022 for the first, 0.0724 for the second.

Compared with GACTGGTA, AGCACTTG is lower in “PBM E-score” value: 0.0356 for the first, -0.214 for the second.

Going from AAACGCAG to AGTTAAGA, the “PBM E-score” value rises from -0.0761 to -0.056.

Going from CGCTGACC to TCATATCA, the “PBM E-score” value rises from 0.111 to 0.203.

Going from CCATCCAC to CCGCAACG, the “PBM E-score” value rises from -0.165 to -0.154.

Going from ATTATCAA to AACTGATC, the “PBM E-score” value falls from 0.193 to 0.0318.

Going from ATAGGGTG to GTTGGATA, the “PBM E-score” value rises from 0.0433 to 0.154.

First: CATAAGGA
Second: AGTCATCC
The “PBM E-score” value of the first is higher: -0.0123 for the first, -0.165 for the second.

Compared with GCGCGTAC, CAGCCCGG is lower in “PBM E-score” value: -0.0241 for the first, -0.192 for the second.

First: AGGCTCTA
Second: CCCATCGG
The “PBM E-score” value of the first is higher: -0.0412 for the first, -0.13 for the second.

Going from ACTCTTGG to CTCCGACA, the “PBM E-score” value falls from -0.0313 to -0.0704.

Compared with ATCGCTCC, TCAAGAGA is higher in “PBM E-score” value: -0.0844 for the first, 0.0989 for the second.

First: AATGGAAG
Second: CTGCCGAA
The “PBM E-score” value of the first is higher: 0.0701 for the first, -0.0277 for the second.

Compared with CACTACCC, ACGACATC is lower in “PBM E-score” value: -0.0408 for the first, -0.18 for the second.

Compared with ACTGGCGA, CCTGGAAG is higher in “PBM E-score” value: -0.129 for the first, 0.0497 for the second.

Compared with ACACCGAG, CAGGATCG is lower in “PBM E-score” value: -0.114 for the first, -0.178 for the second.

Going from ACTAGCGC to CCCGGAAA, the “PBM E-score” value rises from -0.0932 to 0.192.

Compared with AAAGAGAG, CAATTTCG is higher in “PBM E-score” value: -0.162 for the first, 0.108 for the second.

First: ACTAATCA
Second: CAAGAGGG
The “PBM E-score” value of the first is higher: 0.122 for the first, -0.125 for the second.

Going from CGGGAGAA to TACGGGAA, the “PBM E-score” value falls from 0.0735 to -0.118.

First: AGGAGTTA
Second: ACCACCCG
The “PBM E-score” value of the first is higher: 0.149 for the first, -0.159 for the second.

First: AACGTATG
Second: CCTCATGA
The “PBM E-score” value of the first is higher: 0.07 for the first, -0.108 for the second.

Going from TCACATCA to AGGGCTAT, the “PBM E-score” value falls from 0.0866 to -0.0925.

Compared with ACCTAGTC, ATCCGTTG is higher in “PBM E-score” value: -0.0849 for the first, 0.0488 for the second.

Going from TACACGAA to GACCACCC, the “PBM E-score” value falls from 0.185 to -0.311.

Going from ATGGATGA to ACGTAAGT, the “PBM E-score” value falls from 0.0759 to 0.0143.

First: AAGCCTTG
Second: ACCTTGAA
The “PBM E-score” value of the first is lower: -0.12 for the first, 0.102 for the second.

Going from CCGGAGCC to ATACGATA, the “PBM E-score” value rises from -0.0532 to 0.158.

First: GCCTGGCC
Second: CCTATCCA
The “PBM E-score” value of the first is lower: -0.172 for the first, -0.0722 for the second.

First: GACTATGC
Second: ACTATGAC
The “PBM E-score” value of the first is lower: -0.0965 for the first, 0.111 for the second.

First: ATTTGTCG
Second: ACGAACTG
The “PBM E-score” value of the first is higher: 0.263 for the first, -0.0447 for the second.

Compared with AAATTACG, AGGGATGC is lower in “PBM E-score” value: 0.111 for the first, -0.313 for the second.

Going from AACATGAG to ATGGCAAA, the “PBM E-score” value rises from -0.0169 to -0.0059.

Going from AAACATCC to CTACACGA, the “PBM E-score” value falls from 0.192 to 0.0651.

Going from AATGTATC to AGAAGAAC, the “PBM E-score” value falls from 0.178 to 0.171.

Compared with CGCATGAA, AGGCACAT is lower in “PBM E-score” value: 0.0716 for the first, 0.042 for the second.

Compared with CACACACA, CAGCAGAA is higher in “PBM E-score” value: -0.0215 for the first, -0.00146 for the second.

Going from CCTGCGAA to GCGTCGAA, the “PBM E-score” value rises from -0.0293 to 0.0364.

Going from CCCATCCC to CTAACTAG, the “PBM E-score” value rises from -0.23 to 0.199.

Going from AGCAGGGA to AAAACCGA, the “PBM E-score” value rises from -0.00624 to 0.211.

Going from CCTGAAGA to GAACGACC, the “PBM E-score” value falls from -0.0579 to -0.312.
